The source of these data is paper PMC4336329 (PLoS ONE, 2015).

In all, about 310,000 compounds went through this assay and about 2,200 (0.71%) showed an effect of 50% or more. Effects have a minus sign here. The list shows a part of the results.

Chain of human ether-à-go-go-related gene (hERG) potassium channel (Q12809 whole entry, looked up): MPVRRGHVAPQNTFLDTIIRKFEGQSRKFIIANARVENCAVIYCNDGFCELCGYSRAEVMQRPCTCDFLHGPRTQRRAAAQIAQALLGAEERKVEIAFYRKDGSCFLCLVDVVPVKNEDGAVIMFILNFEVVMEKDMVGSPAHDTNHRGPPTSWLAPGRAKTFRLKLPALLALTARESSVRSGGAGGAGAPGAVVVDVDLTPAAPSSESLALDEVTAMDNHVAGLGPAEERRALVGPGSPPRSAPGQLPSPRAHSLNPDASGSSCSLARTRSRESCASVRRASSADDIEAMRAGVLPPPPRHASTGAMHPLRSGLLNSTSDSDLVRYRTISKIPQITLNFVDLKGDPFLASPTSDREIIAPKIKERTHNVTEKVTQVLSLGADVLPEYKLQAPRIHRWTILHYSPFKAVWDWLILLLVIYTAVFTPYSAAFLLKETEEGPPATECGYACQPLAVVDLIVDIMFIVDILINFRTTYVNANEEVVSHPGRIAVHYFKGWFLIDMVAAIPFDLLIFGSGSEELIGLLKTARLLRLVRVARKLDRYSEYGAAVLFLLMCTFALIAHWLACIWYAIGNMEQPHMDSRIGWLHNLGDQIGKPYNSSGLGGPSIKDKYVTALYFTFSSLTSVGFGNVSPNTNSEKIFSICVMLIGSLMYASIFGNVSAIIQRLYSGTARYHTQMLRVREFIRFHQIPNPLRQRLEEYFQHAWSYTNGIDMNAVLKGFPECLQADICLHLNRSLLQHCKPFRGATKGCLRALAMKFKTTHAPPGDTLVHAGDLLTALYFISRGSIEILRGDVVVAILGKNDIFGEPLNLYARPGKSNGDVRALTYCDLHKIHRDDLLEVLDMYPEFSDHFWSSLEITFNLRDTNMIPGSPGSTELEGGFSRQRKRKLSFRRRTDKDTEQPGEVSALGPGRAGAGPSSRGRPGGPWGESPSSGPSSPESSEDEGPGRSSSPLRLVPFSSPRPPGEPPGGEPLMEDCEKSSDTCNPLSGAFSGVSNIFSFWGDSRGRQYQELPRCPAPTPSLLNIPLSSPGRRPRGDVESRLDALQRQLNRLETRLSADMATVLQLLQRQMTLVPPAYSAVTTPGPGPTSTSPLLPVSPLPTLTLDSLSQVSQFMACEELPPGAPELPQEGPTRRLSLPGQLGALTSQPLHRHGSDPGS

The test concerns the target human ether-à-go-go-related gene (hERG) potassium channel (human, UniProt Q12809). Kind of test: primary screen, population patch clamp on CHO cells stably expressing hERG.
As for `COc1ccc(S(=O)(=O)N2CCN(C(=S)NC3CCCCC3)CC2)cc1`, the “hERG current change (%, negative = inhibition) at 1uM” value amounted to 15.1%.
For `CC(=O)N[C@H](Cc1c[nH]c2ccccc12)C(=O)O`, the “hERG current change (%, negative = inhibition) at 1uM” value was determined as 8.37%.
For the molecule `Cc1cccn2cc(COc3cccc([N+](=O)[O-])c3)nc12`, the “hERG current change (%, negative = inhibition) at 1uM” value is reported as 10.1%.
Turning to `O=[N+]([O-])c1ccc(OCCCCN2CCCCC2)cc1`, the “hERG current change (%, negative = inhibition) at 1uM” value is on record as -59.4%.
Regarding `Cc1ccc(NC2(C(F)(F)F)N=C(c3ccccc3)NC2=O)nc1` (stereo not drawn), the “hERG current change (%, negative = inhibition) at 1uM” value worked out at 9.98%.
`CC(C)(C)SCCNC(=O)c1ccc(Cl)c(S(=O)(=O)N2CCOCC2)c1`: the “hERG current change (%, negative = inhibition) at 1uM” value is recorded as 9.39%.
With `O=C(NCc1ccccc1Cl)c1cnccc1C(F)(F)F`, the “hERG current change (%, negative = inhibition) at 1uM” value is 8.28%.
Take `Cc1ccc(OCC(=O)NNC(=O)C2CCCO2)c(C)c1` (stereo not drawn): the “hERG current change (%, negative = inhibition) at 1uM” value worked out at 11.7%.
Under `COc1ccc(OC)c(S(=O)(=O)N(C)CC(=O)N2CCCCC2)c1` stands 2.23%.
With `Cc1ccc(S(=O)(=O)CC(C)(O)C(=O)Nc2cccc(C(F)(F)F)c2)cc1` (stereo not drawn) the figure was 8.14%.
Under `CCN(CC)C(=O)Cn1cc(C(=O)C(=O)N2CCCc3ccccc32)c2ccccc21` stands 1.99%; under `O=C(CCc1ccncc1)N1CCCC(Nc2ccc(F)c(F)c2)C1` (stereo not drawn), -3.19%.
As for `O=C(COc1cccc(NC(=O)c2ccco2)c1)c1ccc(F)cc1`, the “hERG current change (%, negative = inhibition) at 1uM” value was -3.08%.
With `O=C(c1cc(F)ccc1F)C1CCCN(C(=O)c2cccs2)C1` (stereo not drawn) the figure was 10.1%; with `O=C(O)c1cc2n(n1)C(C(F)(F)F)CC(c1ccccc1)N2` (stereo not drawn), 18%.
With `CCCC(=O)Nc1ccc2nc(SCC(=O)N3CCCC3)sc2c1`, the “hERG current change (%, negative = inhibition) at 1uM” value came to 9.11%.
Under `Cn1c(=O)[nH]c2c(Cl)nccc21` stands 10.4%; under `O=C1CCC([N+](=O)[O-])C(c2cccc(Br)c2)N1` (stereo not drawn), -8.83%.
Regarding `COc1cccc(Cn2cc(N)cn2)c1`, the “hERG current change (%, negative = inhibition) at 1uM” value turned out to be 17.4%.
Regarding `CC(NC(=O)C1CCC(CNC(=O)[C@@H]2Cc3ccccc3CN2)CC1)c1ccccc1` (stereo partly drawn), the “hERG current change (%, negative = inhibition) at 1uM” value is 15.8%.
As for `Cc1cccc(CSc2ccc(S(=O)(=O)N3CCCC3)cn2)c1`, the “hERG current change (%, negative = inhibition) at 1uM” value worked out at 18%.
With `CCCCNC(=S)NNC(=O)c1c(Cl)c(C)nn1C` the figure was 8.81%.
As to `CCn1c(Cc2ccccc2)nnc1SCC(=O)Nc1ccc2c(c1)OCO2`, the “hERG current change (%, negative = inhibition) at 1uM” value turned out to be 7.75%.
`C=C(C)COc1ccc(-c2nc(N)ncc2-c2ccc(OC)c(OC)c2)c(O)c1`: the “hERG current change (%, negative = inhibition) at 1uM” value is given as 6.14%.
In the case of `O=C(Nc1cnccn1)c1ccncc1`, the “hERG current change (%, negative = inhibition) at 1uM” value was -8.03%.
As for `CCOc1ccc(Nc2n[nH]c(=S)s2)cc1`, the “hERG current change (%, negative = inhibition) at 1uM” value worked out at 17.5%.
On to `O=P1(Nn2cnnc2)C=C(c2ccccc2)OC(c2ccccc2)=C1`, for which the “hERG current change (%, negative = inhibition) at 1uM” value was -9.39%.
